Laboratory results from article PMC4906230.
Results are given in words; binding and its absence hold for the method and conditions named. In cells and extracts the contact can be indirect. Some binding calls cover weakened binding; strength is not graded here. For part of these data: Where a sequence is shown, tags or fusion partners need not be part of it. Each block holds one binder with its values, some of them ahead of it.

Chains of the proteins cited; added tags and fusions are not shown. Residues count along the entry.
UniProt O75056: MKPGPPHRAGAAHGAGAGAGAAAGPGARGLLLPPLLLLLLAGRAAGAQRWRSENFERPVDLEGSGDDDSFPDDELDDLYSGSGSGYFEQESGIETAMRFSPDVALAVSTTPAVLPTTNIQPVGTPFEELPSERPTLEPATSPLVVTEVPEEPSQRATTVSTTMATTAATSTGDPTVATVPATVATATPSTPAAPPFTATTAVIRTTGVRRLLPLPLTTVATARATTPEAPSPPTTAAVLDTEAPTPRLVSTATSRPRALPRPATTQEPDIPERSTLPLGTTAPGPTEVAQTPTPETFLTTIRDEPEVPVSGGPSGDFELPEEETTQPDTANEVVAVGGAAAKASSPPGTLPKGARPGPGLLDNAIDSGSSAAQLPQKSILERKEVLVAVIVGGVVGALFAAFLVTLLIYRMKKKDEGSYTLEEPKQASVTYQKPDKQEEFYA
UniProt P34741, residues 19-201: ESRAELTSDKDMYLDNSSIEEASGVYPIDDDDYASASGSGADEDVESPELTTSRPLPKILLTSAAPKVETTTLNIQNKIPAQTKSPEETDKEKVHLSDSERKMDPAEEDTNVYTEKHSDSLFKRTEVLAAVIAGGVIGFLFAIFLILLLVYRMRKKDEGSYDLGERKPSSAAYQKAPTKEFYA

How the values were obtained:
[1] = target: T1, Myc-tagged SDC4 (human) (UniProt P31431); test: co-IP; HEK293 cells transfected with epitope-tagged expression plasmids, lysed 24 h later; lysates immunoprecipitated with anti-Myc or anti-Flag beads and immunoblotted; in Fig. 7f,g with SDC4 overexpressed or knocked down by siRNA
T1 sequence: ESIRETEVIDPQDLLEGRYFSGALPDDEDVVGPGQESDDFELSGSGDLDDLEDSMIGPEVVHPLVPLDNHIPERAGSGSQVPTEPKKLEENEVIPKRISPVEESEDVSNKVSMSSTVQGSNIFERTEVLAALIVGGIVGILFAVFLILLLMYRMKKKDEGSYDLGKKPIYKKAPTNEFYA

[2] = target: T2, Myc-tagged SDC1 (UniProt P18827); test: as above
T2 sequence: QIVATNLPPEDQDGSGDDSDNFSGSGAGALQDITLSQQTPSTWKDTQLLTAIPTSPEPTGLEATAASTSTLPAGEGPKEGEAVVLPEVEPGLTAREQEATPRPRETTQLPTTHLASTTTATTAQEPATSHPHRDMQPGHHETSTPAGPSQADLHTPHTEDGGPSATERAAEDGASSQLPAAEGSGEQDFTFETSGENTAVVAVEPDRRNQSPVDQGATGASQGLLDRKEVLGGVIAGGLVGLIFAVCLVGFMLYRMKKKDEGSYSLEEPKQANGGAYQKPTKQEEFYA

[3] = target: T3, Flag-tagged CYLD (UniProt Q9NQC7); test: as above
T3 sequence: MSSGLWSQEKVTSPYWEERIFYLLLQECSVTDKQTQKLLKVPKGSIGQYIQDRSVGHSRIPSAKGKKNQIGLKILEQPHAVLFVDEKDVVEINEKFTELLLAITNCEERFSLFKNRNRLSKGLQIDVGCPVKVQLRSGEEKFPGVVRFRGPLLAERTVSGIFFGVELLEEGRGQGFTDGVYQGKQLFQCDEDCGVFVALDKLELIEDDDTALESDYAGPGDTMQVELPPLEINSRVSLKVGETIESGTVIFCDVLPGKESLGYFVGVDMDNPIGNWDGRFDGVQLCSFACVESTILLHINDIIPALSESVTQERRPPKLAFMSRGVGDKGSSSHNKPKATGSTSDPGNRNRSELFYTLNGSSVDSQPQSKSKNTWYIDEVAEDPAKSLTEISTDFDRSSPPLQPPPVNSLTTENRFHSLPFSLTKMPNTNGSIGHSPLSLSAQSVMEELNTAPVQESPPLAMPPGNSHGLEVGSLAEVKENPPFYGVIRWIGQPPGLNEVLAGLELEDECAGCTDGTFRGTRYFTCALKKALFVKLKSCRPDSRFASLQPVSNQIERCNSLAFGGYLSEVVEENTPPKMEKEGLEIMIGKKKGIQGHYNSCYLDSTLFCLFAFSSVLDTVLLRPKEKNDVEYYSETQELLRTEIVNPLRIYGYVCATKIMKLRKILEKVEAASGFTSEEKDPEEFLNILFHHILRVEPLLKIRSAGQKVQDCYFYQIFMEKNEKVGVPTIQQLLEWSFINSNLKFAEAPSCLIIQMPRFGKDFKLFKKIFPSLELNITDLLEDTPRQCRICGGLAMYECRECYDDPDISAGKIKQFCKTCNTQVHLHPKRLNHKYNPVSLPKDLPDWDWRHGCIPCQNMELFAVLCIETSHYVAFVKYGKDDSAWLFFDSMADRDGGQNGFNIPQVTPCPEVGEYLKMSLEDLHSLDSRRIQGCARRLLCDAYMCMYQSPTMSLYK

[4] = target: Myc-tagged SDC3 (UniProt O75056); test: as above
[5] = target: Myc-tagged SDC2 (UniProt P34741); test: as above
[6] = target: T4, Flag-tagged SDC4 (human) (UniProt P31431); test: co-IP; semi-endogenous: HEK293 transfected with Flag-SDC4, uninfected or infected with SeV for 7 h; 0.5% TritonX-100 lysis buffer (50 mM Tris-Cl pH 7.5, 150 mM NaCl, 10% glycerol, 1 mM EDTA); anti-Flag agarose beads 4–6 h at 4 °C
T4 sequence: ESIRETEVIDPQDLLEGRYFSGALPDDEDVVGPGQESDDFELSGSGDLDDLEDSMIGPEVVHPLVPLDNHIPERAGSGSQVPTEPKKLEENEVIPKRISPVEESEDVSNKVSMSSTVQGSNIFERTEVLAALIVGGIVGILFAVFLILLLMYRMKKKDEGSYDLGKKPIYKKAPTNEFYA

[7] = target: T5, endogenous SDC4 (UniProt P31431); test: co-IP; endogenous: cells uninfected or infected with SeV; 0.2% TritonX-100 lysis buffer (20 mM Tris-Cl pH 7.5, 100 mM NaCl, 10% glycerol, 10 mM EDTA); anti-SDC4 antibody or control IgG overnight at 4 °C, then proteinA/G agarose beads 2–3 h
T5 sequence: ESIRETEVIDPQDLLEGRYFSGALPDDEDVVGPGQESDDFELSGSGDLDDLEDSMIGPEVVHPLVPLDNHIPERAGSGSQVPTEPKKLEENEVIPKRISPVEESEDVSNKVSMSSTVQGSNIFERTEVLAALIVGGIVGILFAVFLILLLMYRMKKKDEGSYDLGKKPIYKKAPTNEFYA

[8] = target: Flag-tagged TRIM25, Q14258; test: co-IP; HEK293 cells transfected with epitope-tagged expression plasmids, lysed 24 h later; lysates immunoprecipitated with anti-Myc or anti-Flag beads and immunoblotted; in Fig. 7f,g with SDC4 overexpressed or knocked down by siRNA; conditions: remark: other sources report otherwise
[9] = target: T4, Flag-tagged SDC4 (human); test: as above

binding [1]: binds | binding [2]: no binding | binding [3]: binds | binding [4]: no binding | binding [5]: no binding
B1: RIG-I, transfected, construct not told for the experiment (protein, UniProt O95786 1-925)
chain: MTTEQRRSLQAFQDYIRKTLDPTYILSYMAPWFREEEVQYIQAEKNNKGPMEAATLFLKFLLELQEEGWFRGFLDALDHAGYSGLYEAIESWDFKKIEKLEEYRLLLKRLQPEFKTRIIPTDIISDLSECLINQECEEILQICSTKGMMAGAEKLVECLLRSDKENWPKTLKLALEKERNKFSELWIVEKGIKDVETEDLEDKMETSDIQIFYQEDPECQNLSENSCPPSEVSDTNLYSPFKPRNYQLELALPAMKGKNTIICAPTGCGKTFVSLLICEHHLKKFPQGQKGKVVFFANQIPVYEQQKSVFSKYFERHGYRVTGISGATAENVPVEQIVENNDIIILTPQILVNNLKKGTIPSLSIFTLMIFDECHNTSKQHPYNMIMFNYLDQKLGGSSGPLPQVIGLTASVGVGDAKNTDEALDYICKLCASLDASVIATVKHNLEELEQVVYKPQKFFRKVESRISDKFKYIIAQLMRDTESLAKRICKDLENLSQIQNREFGTQKYEQWIVTVQKACMVFQMPDKDEESRICKALFLYTSHLRKYNDALIISEHARMKDALDYLKDFFSNVRAAGFDEIEQDLTQRFEEKLQELESVSRDPSNENPKLEDLCFILQEEYHLNPETITILFVKTRALVDALKNWIEGNPKLSFLKPGILTGRGKTNQNTGMTLPAQKCILDAFKASGDHNILIATSVADEGIDIAQCNLVILYEYVGNVIKMIQTRGRGRARGSKCFLLTSNAGVIEKEQINMYKEKMMNDSILRLQTWDEAVFREKILHIQTHEKFIRDSQEKPKPVPDKENKKLLCRKCKALACYTADVRVIEECHYTVLGDAFKECFVSRPHPKPKQFSSFEKRAKIFCARQNCSHDWGIHVKYKTFEIPVIKIESFVVEDIATGVQTLYSKWKDFHFEKIPFDPAEMSK

binding [8]: binds
B3: RIG-I, transfected, construct not told for the experiment, O95786 1-925 (protein)
chain: MTTEQRRSLQAFQDYIRKTLDPTYILSYMAPWFREEEVQYIQAEKNNKGPMEAATLFLKFLLELQEEGWFRGFLDALDHAGYSGLYEAIESWDFKKIEKLEEYRLLLKRLQPEFKTRIIPTDIISDLSECLINQECEEILQICSTKGMMAGAEKLVECLLRSDKENWPKTLKLALEKERNKFSELWIVEKGIKDVETEDLEDKMETSDIQIFYQEDPECQNLSENSCPPSEVSDTNLYSPFKPRNYQLELALPAMKGKNTIICAPTGCGKTFVSLLICEHHLKKFPQGQKGKVVFFANQIPVYEQQKSVFSKYFERHGYRVTGISGATAENVPVEQIVENNDIIILTPQILVNNLKKGTIPSLSIFTLMIFDECHNTSKQHPYNMIMFNYLDQKLGGSSGPLPQVIGLTASVGVGDAKNTDEALDYICKLCASLDASVIATVKHNLEELEQVVYKPQKFFRKVESRISDKFKYIIAQLMRDTESLAKRICKDLENLSQIQNREFGTQKYEQWIVTVQKACMVFQMPDKDEESRICKALFLYTSHLRKYNDALIISEHARMKDALDYLKDFFSNVRAAGFDEIEQDLTQRFEEKLQELESVSRDPSNENPKLEDLCFILQEEYHLNPETITILFVKTRALVDALKNWIEGNPKLSFLKPGILTGRGKTNQNTGMTLPAQKCILDAFKASGDHNILIATSVADEGIDIAQCNLVILYEYVGNVIKMIQTRGRGRARGSKCFLLTSNAGVIEKEQINMYKEKMMNDSILRLQTWDEAVFREKILHIQTHEKFIRDSQEKPKPVPDKENKKLLCRKCKALACYTADVRVIEECHYTVLGDAFKECFVSRPHPKPKQFSSFEKRAKIFCARQNCSHDWGIHVKYKTFEIPVIKIESFVVEDIATGVQTLYSKWKDFHFEKIPFDPAEMSK

More lines, now with the values behind:

B2: endogenous RIG-I (protein, UniProt O95786 1-925)
chain: MTTEQRRSLQAFQDYIRKTLDPTYILSYMAPWFREEEVQYIQAEKNNKGPMEAATLFLKFLLELQEEGWFRGFLDALDHAGYSGLYEAIESWDFKKIEKLEEYRLLLKRLQPEFKTRIIPTDIISDLSECLINQECEEILQICSTKGMMAGAEKLVECLLRSDKENWPKTLKLALEKERNKFSELWIVEKGIKDVETEDLEDKMETSDIQIFYQEDPECQNLSENSCPPSEVSDTNLYSPFKPRNYQLELALPAMKGKNTIICAPTGCGKTFVSLLICEHHLKKFPQGQKGKVVFFANQIPVYEQQKSVFSKYFERHGYRVTGISGATAENVPVEQIVENNDIIILTPQILVNNLKKGTIPSLSIFTLMIFDECHNTSKQHPYNMIMFNYLDQKLGGSSGPLPQVIGLTASVGVGDAKNTDEALDYICKLCASLDASVIATVKHNLEELEQVVYKPQKFFRKVESRISDKFKYIIAQLMRDTESLAKRICKDLENLSQIQNREFGTQKYEQWIVTVQKACMVFQMPDKDEESRICKALFLYTSHLRKYNDALIISEHARMKDALDYLKDFFSNVRAAGFDEIEQDLTQRFEEKLQELESVSRDPSNENPKLEDLCFILQEEYHLNPETITILFVKTRALVDALKNWIEGNPKLSFLKPGILTGRGKTNQNTGMTLPAQKCILDAFKASGDHNILIATSVADEGIDIAQCNLVILYEYVGNVIKMIQTRGRGRARGSKCFLLTSNAGVIEKEQINMYKEKMMNDSILRLQTWDEAVFREKILHIQTHEKFIRDSQEKPKPVPDKENKKLLCRKCKALACYTADVRVIEECHYTVLGDAFKECFVSRPHPKPKQFSSFEKRAKIFCARQNCSHDWGIHVKYKTFEIPVIKIESFVVEDIATGVQTLYSKWKDFHFEKIPFDPAEMSK
binding [6]: binds | binding [7]: binds

B4: HA-tagged full-length RIG-I (protein, UniProt O95786 1-925)
chain: MTTEQRRSLQAFQDYIRKTLDPTYILSYMAPWFREEEVQYIQAEKNNKGPMEAATLFLKFLLELQEEGWFRGFLDALDHAGYSGLYEAIESWDFKKIEKLEEYRLLLKRLQPEFKTRIIPTDIISDLSECLINQECEEILQICSTKGMMAGAEKLVECLLRSDKENWPKTLKLALEKERNKFSELWIVEKGIKDVETEDLEDKMETSDIQIFYQEDPECQNLSENSCPPSEVSDTNLYSPFKPRNYQLELALPAMKGKNTIICAPTGCGKTFVSLLICEHHLKKFPQGQKGKVVFFANQIPVYEQQKSVFSKYFERHGYRVTGISGATAENVPVEQIVENNDIIILTPQILVNNLKKGTIPSLSIFTLMIFDECHNTSKQHPYNMIMFNYLDQKLGGSSGPLPQVIGLTASVGVGDAKNTDEALDYICKLCASLDASVIATVKHNLEELEQVVYKPQKFFRKVESRISDKFKYIIAQLMRDTESLAKRICKDLENLSQIQNREFGTQKYEQWIVTVQKACMVFQMPDKDEESRICKALFLYTSHLRKYNDALIISEHARMKDALDYLKDFFSNVRAAGFDEIEQDLTQRFEEKLQELESVSRDPSNENPKLEDLCFILQEEYHLNPETITILFVKTRALVDALKNWIEGNPKLSFLKPGILTGRGKTNQNTGMTLPAQKCILDAFKASGDHNILIATSVADEGIDIAQCNLVILYEYVGNVIKMIQTRGRGRARGSKCFLLTSNAGVIEKEQINMYKEKMMNDSILRLQTWDEAVFREKILHIQTHEKFIRDSQEKPKPVPDKENKKLLCRKCKALACYTADVRVIEECHYTVLGDAFKECFVSRPHPKPKQFSSFEKRAKIFCARQNCSHDWGIHVKYKTFEIPVIKIESFVVEDIATGVQTLYSKWKDFHFEKIPFDPAEMSK
binding [9]: binds
